This passage reports TGI and GI50 results from PubChem BioAssay (NCI).

“And” between values parts separate entries of the source, which are not always exact repeats. Equal values may be shown once.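 Step 1: Grow cells in 96-well plates. Step 2: Expose to compound for 48 hours at 5 concentrations. Step 3: Interpolate endpoints linearly; if unreached, use highest concentration. The concentration for 50% growth inhibition is given as GI50. TGI: total growth inhibition.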 Peptide text beside a SMILES is read from it. * marks the point of attachment. X24 = Clc1c(Cl)c(Cl)c(O*)c(Cl)c1Cl; Boc = CC(C)(C)OC(=O)*; OBn = c1ccc(CO*)cc1; Bn = c1ccc(C*)cc1 A value given as a limit tells only on which side of the number the result lay.

The assay relates to NCI-H322M lung. In words: NCI tumour cell line growth inhibition, 48 h.
The molecule `COCC#C[C@@]1(O)CCCCC1CC(OC)OC` (stereo partly drawn) displayed a TGI of more than 100 µM. Regarding `O=C1/C(=C/c2ccc(Cl)cc2)CCCc2ccc(F)cc21`, the GI50 was 19.3 µM and the TGI was 64.1 µM. For `CC(=O)OC1CC2(O)C(CCC3(C)C(c4ccc(=O)oc4)CCC32O)C2(C)C1=CC(O)C1OC12` (stereo not drawn), the TGI was 0.127 µM. Still for that read-out and setting: the value for `S=c1[nH]nc(Cn2c3ccc(Br)cc3c3nc4ccccc4nc32)n1C1CCCCC1` was more than 100 µM. In the case of `COc1cc(-c2csc(NC(=O)c3cc(C(F)(F)F)cc(C(F)(F)F)c3)n2)cc(OC)c1OC`, the GI50 was 3.33 µM and the TGI is more than 100 µM. Consider `CCOc1snc(C(Cl)(Cl)Cl)c1Cl`, for which the TGI is more than 100 µM. With `Cc1ccc(C(=O)/C(=C/c2ccc([N+](=O)[O-])cc2)S(=O)Cc2ccccc2)cc1` (stereo not drawn), the GI50 is 1.73 µM and the TGI was 3.47 µM. `O=C1NC(=S)NC(=O)C1C(c1ccc(Cl)cc1)C1C(=O)NC(=S)NC1=O` came in with a TGI of more than 100 µM. For `CN1C2CC(C#N)C1C=CC2=O` (stereo not drawn), the GI50 was 21.2 µM and > 100 µM; the TGI is 49.6 µM and > 100 µM.

Regarding `COc1cc2c3cc1Oc1c(OC)c(OC)cc4c1C(Cc1ccc(O)c(c1)Oc1ccc(cc1)CC3N(C)CC2)CN(C)C4` (stereo not drawn), the TGI stood at 37.5 µM. On the same count and under the same terms, the value for `CC(CO)[C@H]1OC(=O)C=C2[C@@]13O[C@@H]3[C@H]1OC(=O)[C@@]3(C)[C@H]4O[C@H]4C[C@@]2(C)[C@@H]13` (stereo partly drawn) was more than 27 µM.

In the case of `CNC(=O)Nc1ccc(-c2nc(N3CCOCC3)nc3c2cnn3C2CCOCC2)cc1`, the GI50 was 0.252 µM and the TGI came out at 8.37 µM. `O=C(Sc1c(-c2ccccc2)c(=O)n(-c2ccccc2)c(=S)n1-c1ccccc1)c1ccco1`: the TGI is more than 100 µM. On the same count and under the same terms, the value for `O=c1c(-c2ccccc2)c(SCCN2CCCCCC2)n(-c2ccccc2)c(=S)n1-c1ccccc1` was 27.2 µM. With `CC(=O)c1cccc(N(/C=C/C(=O)C(F)(F)F)CC(=O)c2ccc(Cl)cc2)c1`, the GI50 is more than 100 µM and the TGI is more than 100 µM. `O=[N+]([O-])c1ccc(N=Nc2c(O)[nH]c3ccc([N+](=O)[O-])cc23)cc1` displayed a TGI of 63.3 µM. As to `CC(C)N(C(C)C)[PH+]1O[PH+](N(C(C)C)C(C)C)O[PH+](N(C(C)C)C(C)C)O[PH+](N(C(C)C)C(C)C)O[PH+](N(C(C)C)C(C)C)O1.[C-]#[O+].[C-]#[O+].[C-]#[O+].[C-]#[O+].[C-]#[O+].[C-]#[O+].[C-]#[O+].[Cr].[Cr]` (stereo not drawn), the GI50 is more than 100 µM and the TGI was more than 100 µM. With `COC(=O)c1ccc2c(c1)C(NC(C)=O)CCc1cc(OC)c(OC)c(OC)c1-2` (stereo not drawn), the TGI was found to be 22.7 µM.

Molecule `Nc1cc2c3c(cccc3c1)NC2=O` came in with a TGI of more than 100 µM. As to `CC(=O)N(CCN)CCN`, the TGI is more than 10 µM. Same read-out and setting: the value for `Oc1c(OCc2nnc(CCCCCCCCc3nnc(COc4ccc5ccccc5c4O)o3)o2)ccc2ccccc12` was more than 100 µM; that for `COc1cccc(N2C(=O)CS(=O)(=O)C2c2cccc(Oc3ccccc3)c2)c1` (stereo not drawn) was more than 100 µM; that for `Cc1ccc(S(=O)(=O)c2c(O)c3ccc(O)c(C)c3oc2=O)cc1` was more than 100 µM.

The molecule `CC1CCc2sc3nc4n(c(=O)c3c2C1)CC(C)S4` (stereo not drawn) came in with a TGI of 97.3 µM. Consider `CS(=O)(=O)c1ccc(Cl)c([N+](=O)[O-])c1`, for which the GI50 is 18.8 µM and the TGI is 35.2 µM. Take `c1c(N2CCOCC2)ssc1=[N+]1CCOCC1`: the TGI is more than 100 µM.

`C=C1C[C@@H]2CC[C@@]34C[C@H]5O[C@H]6[C@@H](O3)[C@H]3O[C@H](CC[C@@H]3O[C@H]6[C@H]5O4)CC(=O)C[C@@H]3[C@@H](OC)[C@@H](C[C@H](O)CN)O[C@H]3C[C@H]3O[C@@H](CC[C@@H]1O2)C[C@@H](C)C3=C`: the GI50 is 0.00294 µM and the TGI was more than 1 µM. For the molecule `COc1cc(OC)cc(Oc2nc3cc(F)c(F)cc3nc2-c2ccccc2)c1`, the TGI was more than 100 µM.

Take `O=C1c2cccnc2S(=O)(=O)N1c1ccc([N+](=O)[O-])cc1`: the TGI is more than 100 µM. On the same count and under the same terms, the value for `Cc1cc(OCc2nnc3sc(NC(=O)c4ccccc4)nn23)ccc1Cl` was more than 100 µM; that for `N#Cc1ccc(-c2nc(C#N)c(N)o2)cc1` was more than 10 µM. As for `COc1ccc2nc(-c3ccccc3)cc(Nc3cccc(/C(C)=N\O)c3)c2c1`, the GI50 was 2.85 µM and the TGI was found to be 9.68 µM.

Regarding `COC(=O)C1=CCON(c2ccccc2)C1c1ccccc1` (stereo not drawn), the TGI was more than 100 µM.

`N/C(=N\OC(=O)c1ccccc1)C(C(=O)NOC(=O)c1ccccc1)C1CCCCC1` (stereo not drawn): the GI50 was 15.1 µM and the TGI was 59.9 µM. `CC1(C)CCC(C)(C)c2cc(C(=O)Nc3ccc(C(=O)O)cc3)ccc21` had a TGI of more than 87.1 µM. Same read-out and setting: the value for `C/C(=N/N(C=O)C[n+]1ccccc1)C(CN(CC(C)C)CC(C)C)C(=O)Nc1ccc(C)cc1C` (stereo not drawn) was more than 100 µM; that for `CN(C)CCNc1c([N+](=O)[O-])sc2ccc(Cl)cc12` was more than 100 µM; that for `CCC(=O)Nc1ccc(NS(=O)(=O)c2ccc(Cl)cc2)cc1` was more than 100 µM. The same measure, in the same setting: the value for `NC(N)=NS(=O)(=O)c1ccc(NC(=O)c2cccc3c(NNc4ccc(S(N)(=O)=O)cc4)c4ccccc4nc23)cc1` was more than 100 µM. For the molecule `COc1ccc(-c2cc(-c3ccc(Cl)cc3)c(C#N)c(=O)n2CCCCC(=O)Nc2ccccc2N)cc1`, the GI50 was 13.9 µM and the TGI was more than 100 µM.

For the molecule `CCc1nc(N)nc(N)c1-c1ccc([N+](=O)[O-])c(NCc2ccccc2)c1`, the TGI was 38.7 µM. For the molecule `CCOC(=O)c1c(NC(=O)c2ccc(C(C)C)cc2)sc2c(CN(C)C)c(O)ccc12`, the GI50 is 2.05 µM and the TGI turned out to be 4.51 µM. Take `O=C1/C(=C/c2ccncc2)C(n2cccc2)c2c(Br)sc(Br)c21` (stereo not drawn): the TGI is 6.79 µM. `COC1/C=C/OC2(C)Oc3c(C)c(O)c4c(c3C2=O)C(=O)C=C(NC(=O)/C(C)=C\C=C\C(C)C(OC=O)C(C)C(O)C(C)C(OC(C)=O)C1C)C4=O` (stereo not drawn) displayed a TGI of 45.4 µM. Consider `Cc1cn(CCCCCOC(=O)NC(CCCNC(N)=O)C(=O)O)c(=O)[nH]c1=O` (stereo not drawn), for which the TGI is more than 100 µM. `NS(=O)(=O)c1ccc(N2Cc3cc(Cl)ccc3OC3=C2C(=O)N(CC2CCCCC2)C3=O)cc1`: the GI50 was 1.78 µM and the TGI is 4.11 µM. With `COc1ccc(C2Oc3c(OC)cc(CCCO)cc3C2CO)cc1OC` (stereo not drawn), the TGI is more than 100 µM. The same measure, in the same setting: the value for `CC(=O)C1(O)CCC2(O)C3(O)CC=C4CC(O)CCC4(C)C3CC(OC(=O)c3ccc(O)cc3)C12C` (stereo not drawn) was more than 100 µM. Still for that read-out and setting: the value for `CCC1(Br)C(=O)NC(=O)N(C2CC(O)C(CO)O2)C1N=[N+]=[N-]` (stereo not drawn) was more than 100 µM; that for `COc1ccc(C2=C(Cl)C(=O)O/C2=C\c2ccc(OC)c(Br)c2)cc1Cl` was more than 100 µM. For `CC(C)n1c(/C=C/[C@@H](O)C[C@@H](O)CC(=O)O)c(-c2ccc(F)cc2)c2ccccc21`, the GI50 is 1.11 µM and 3.44 µM; the TGI was more than 100 µM. On to `Nc1c(C(=O)Nc2ccc([As](=O)(O)O)cc2)cnc2nnnn12`, for which the TGI is more than 100 µM. Same read-out and setting: the value for `CNC(=S)NNc1ncnc2c1c(-c1ccc(Cl)cc1)cn2-c1ccc(C)cc1` was 25.2 µM; that for `O=C(O)C1=NN(c2ccc(S(=O)(=O)O)cc2)C2(C1)C(Cl)C(=O)N2c1nc2ccccc2s1` (stereo not drawn) was 50.7 µM; that for `C=C(C)C1CC2C(C)=C(OC(C)=O)C1n1c(=O)c3cc4ccccc4cc3c(=O)n12` (stereo not drawn) was more than 100 µM. On the same count and under the same terms, the value for `Cc1cc2c(cc1C)NC1=C(N2)OC(c2c[nH]c3ccc(COc4ccccc4)cc23)C1=O` (stereo not drawn) was more than 100 µM. In turn, `Cc1nc(SCC(N)=O)c2sc(=S)n(-c3ccccc3)c2n1` displayed a TGI of more than 10 µM. Still for that read-out and setting: the value for `CCCCCCc1cc2cc(-c3csc(-c4ccc(OC)cc4)n3)c(=O)oc2cc1O` was 49.8 µM. With `CC(C)N(C(=O)C12C3C4C1C1C2C3C41C(O)C(C)(C)C)C(C)C` (stereo not drawn), the TGI is more than 50 µM. `Nc1nc2c(ncn2Cc2ccccc2CCO)c(=O)[nH]1` gave a TGI of more than 100 µM.

Consider `COc1ccc(OC/C(N=Cc2ccncc2)=N/NC(=O)c2ccncc2)cc1`, for which the TGI was more than 100 µM.

Molecule `CON(C)C(=O)C(C)NC(=O)OCc1ccccc1` (stereo not drawn) yielded a TGI of more than 100 µM. On the same count and under the same terms, the value for `N=C(N)SCc1cn2ccccc2n1` was more than 100 µM.

As to `COc1cc(Nc2ccnc(N3CCN(c4ccnc5cc(Cl)ccc45)CC3)n2)cc(OC)c1`, the GI50 is 0.456 µM and the TGI is more than 100 µM. With `CCOc1ccc(NCC2CC/C(=C\C=C\c3ccccc3)C2=O)cc1` (stereo not drawn), the TGI is more than 100 µM.

Consider `COc1cc2c3c(cc(Cl)nc3c1OC)C(=O)C(=O)N2`, for which the TGI stood at 31.5 µM. The same measure, in the same setting: the value for `COC(=O)C1=C(C)NC(C)=C(C(=O)OC)C1c1cccc(N=O)c1` was more than 100 µM. On the same count and under the same terms, the value for `CCOC(=O)Cn1nnc2cc(Nc3c(C)[n+]([O-])c4cc(F)c(OCC)cc4[n+]3[O-])ccc21` was more than 100 µM.

As to `COc1cc2cc(Oc3ccc(NC(=O)c4cccc(C(F)(F)F)c4)cc3)c(C)nc2cc1OC`, the GI50 is more than 100 µM and the TGI is more than 100 µM.

For the molecule `S=C(N/N=C/c1cc(Cl)cc(Cl)c1)NC12CC3CC(CC(C3)C1)C2`, the GI50 is 5.23 µM and the TGI was more than 100 µM. `O=c1[nH]c(=O)n(C2CC(O)C(CO)O2)cc1OC/C=C/Cc1ccccc1` (stereo not drawn) displayed a TGI of more than 100 µM. The same measure, in the same setting: the value for `COc1ccc([C@H]2CC(=O)N3CCCC3N2)cc1` (stereo partly drawn) was more than 100 µM. On to `C#C[C@]1(O)CC[C@H]2[C@@H]3CC=C4c5nc(Nc6ccccn6)sc5CC[C@]4(C)[C@H]3CC[C@@]21C`, for which the GI50 is 2.35 µM and the TGI came out at 10.9 µM. In the case of `Clc1ccc(OCc2nnc(COc3ccc(OCc4nnc(COc5ccc(Cl)cc5Cl)o4)c(Cl)c3)o2)c(Cl)c1`, the TGI is more than 100 µM. Same read-out and setting: the value for `CC(C)CC(NC(=O)C(CCC(=O)OCc1ccccc1)NC(=O)OC(C)(C)C)C(=O)NC(COCc1ccccc1)C(=O)NC(Cc1ccccc1)C(=O)Oc1c(Cl)c(Cl)c(Cl)c(Cl)c1Cl` (stereo not drawn) (Boc-E(OBn)LS(Bn)F-X24; configuration not given here) was more than 100 µM; that for `COc1ccc2c(c1)-c1c(c3cc(OC)ccc3n1CCN(C)C)CC2` was 26.1 µM; that for `CC1(C)C(=O)C(O)=CC2C1=CCC1C2(C)C(=O)CC2(C)C(C(C)(O)C(=O)CC(O)C(C)(C)O)C(O)CC12C` (stereo not drawn) was more than 97.4 µM. For the molecule `Fc1cccc(COc2ccc(Nc3ncnc4sc(-c5ccco5)cc34)cc2Cl)c1`, the GI50 is more than 25 µM and the TGI is more than 25 µM.
